From PubChem BioAssay AID1508623 (National Center for Advancing Translational Sciences (NCATS), 2021)
Among all 48,000 compounds or so, about 450 (0.94%) were called active. Roughly 19% stayed inconclusive and do not appear here. The call rests on the fitted dose curve; in most records, active means well fitted inhibition curve with a large enough effect; inconclusive means small, poorly fitted or top-dose-only effect; inactive means no such curve, though single readings can be large or run the other way. The list shows a part of the results.

Assay: Primary qHTS for Identification of Small Molecule Inhibitors of Huntingtin Promoter Activity; further: nearly all actives have a fitted effect of over 50% in size
Details: HEK293 HTT promoter firefly luciferase reporter (activity 0% = vehicle and -100% = no light), 24 h; series mostly up to 57.5 µM; activity change, negative = inhibition: at the top concentration
Method in brief: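 HEK293 luciferase promoter-reporter cells (2,500/well) plated 24 h, then compounds added at up to 57.5 uM final for 24 h at 37 °C. Firefly luminescence by Dual-Glo, normalized to vehicle (0%) and zero RLU (-100%).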

Activity change, negative = inhibition, inactive:
CC(=O)Nc1ccccc1-c1nc2ccccc2n(CC(=O)Nc2cccc(C)c2C)c1=O -2.23%
Cc1ccc2nc(SCc3nc(-c4ccc(Cl)cc4)no3)[nH]c2c1 -15.6%
Cc1cc2c(cc1S(=O)(=O)Nc1cccc(Cl)c1C)n(C)c(=O)c(=O)n2C -13.4%
CCOC(=O)c1cc(-c2ccccc2)n(CCC(=O)Nc2ccccc2CC)c1C -4.9%
COc1ccc(C2CC(=O)N(Cc3ccc(C)cc3)c3c2c(C)nn3-c2nc(C)cc(C)n2)c(OC)c1 (stereo not given) -4.28%
CCCCC12CN3CC(C)(CN(C1)C3c1c[nH]c3ccccc13)C2=O (stereo not given) -16.1%
Cc1cccc(CSc2nc3c([nH]c4ccccc43)c(=O)n2C)c1 -5.75%
CC(=O)N1c2ccc(S(=O)(=O)Nc3ccc(C)c(Cl)c3)cc2CC1C (stereo not given) -30.1%
CCOc1ccc(CC(=O)Nc2c(C(=O)c3ccccc3)oc3ccc(Cl)cc23)cc1OCC 1.93%
COc1cc2c(cc1OC)n(CC(=O)c1cc(C)ccc1C)c(=O)n1nc(CCn3nc(C)cc3C)nc21 -21%
Cc1c(CCNC(=O)c2ccc(C(C)(C)C)cc2)sc2nc(-c3ccc(F)cc3)nn12 -2.57%
CC1=C(C(=O)Nc2cccnc2)C(c2ccc(C)cc2)n2nc(SCc3ccccc3F)nc2N1 (stereo not given) -3.27%
Cc1ccc(NC(=O)C(CC(C)C)N2Cc3ccccc3C2=O)cc1F (stereo not given) -11.9%
CNS(=O)(=O)c1cn(CC(=O)N2CCN(c3ccc(C(C)=O)cc3)CC2)cc1S(=O)(=O)NC 2.2%
COC(=O)c1ccc(NC(=O)c2cc(S(=O)(=O)N3CCOCC3)cn2C)cc1 1.33%
Cc1ccccc1OCC(=O)Nc1ccc(S(=O)(=O)N(Cc2ccccc2)c2ccccc2)cc1 -20.9%
CC(=O)Nc1ccc(NS(=O)(=O)c2c(C(=O)N3CCCCCC3)c(C)n(C)c2C)cc1 1.72%
CN(C)c1ccc(NC(=O)Cn2c(SCc3ccc(F)cc3)nc3ccncc32)cc1 -5.82%
Cc1ccc(C(=O)COC(=O)CCC(=O)Nc2ccc(Oc3ccccc3)cc2)cc1 64.8%
COc1ccc(Cn2c(=O)c3oc4ccccc4c3n(CC(=O)Nc3c(C)cccc3C)c2=O)cc1 5.21%
Cc1oc2cc3oc(=O)c(CCC(=O)NCCc4ccccc4F)c(C)c3cc2c1C 16.1%
Cc1ccc(OCCSc2nnc(-c3cccs3)o2)cc1 -24.4% [at 11.5 µM]
CCC(=O)N1c2ccccc2CC1C(=O)NCc1ccc(CC)cc1 (stereo not given) -6.99%
Cc1cc(C)cc(N(CC(=O)NCCc2ccc(Cl)cc2)S(=O)(=O)c2c(C)noc2C)c1 -0.783%
Cc1ccc2c(c1)c1c(c(=O)n(-c3ccccc3)c(=O)n1Cc1ccccc1C)n2C -3.41%
CN1CCN(C(=O)c2cnn(-c3ccc(F)cc3F)c2C2CCN(C(=O)OC(C)(C)C)CC2)CC1 0.809%
COc1ccc(NC(=O)Nc2nnc(N3CCCC3)s2)cc1 3.87%
CC(=O)c1ccc(S(=O)(=O)NC(=O)NC2CCCCC2)cc1 13.1%
Cc1ccc2c(=O)cc(C(=O)N(Cc3ccc(C(C)(C)C)cc3)C3CCS(=O)(=O)C3)oc2c1 (stereo not given) -2.87%
O=C(c1cc2c(Cl)nc3ccccc3c2s1)N1CCCCC1 2.91%
Oc1ccc(-c2nc3ccc(Cl)cn3c2Nc2ccc(Cl)cc2)cc1 -12.2%
Cc1ccccc1NC(=O)Cn1nc(-c2ccccc2)nc(Cc2ccccc2)c1=O -16.8%
Cc1ccc(CNS(=O)(=O)c2cnc(N)nc2)cc1 -7.83%
COc1ccc(CNC(=O)CSc2nnc(C)c3c(C)n(-c4ccccc4)nc23)c(OC)c1 -28%
CCc1ccc2ncc3c(-c4ccc(C)cc4)nn(CC(=O)NCc4ccccc4)c3c2c1 0%
O=C(CSc1nc2ccccc2n1Cc1cccc(F)c1)NCc1ccccc1 -10.5%
CCOC(=O)c1sc2ncn(CC(=O)Nc3ccc(OC)c(Cl)c3)c(=O)c2c1C -0.431%
COc1ccc(-c2nc3sc(CCNC(=O)C(=O)Nc4ccc(OC)c(OC)c4)c(C)n3n2)cc1 -8.75%
Cc1ccccc1Cn1c2ccccc2c2cnn(CC(=O)NC3CCCCCC3)c(=O)c21 0.792%
CC(C)CCNC(=O)Cn1nc(N2CCN(c3ccccc3)CC2)ccc1=O 10.5%
COc1ccc(OC)c(C2C(C(=O)Nc3ccc(C)cc3)=C(C)Nc3nnnn32)c1 (stereo not given) -14.8%
CC[C@@H](C)[C@H](NC(=O)[C@H](CC1CCCCC1)NC(=O)c1ccno1)C(=O)N1CCC2(CCc3ccccc32)CC1 -9.02%
Cc1ccc(NC(=O)c2ccc(CN3CC(=O)N4CCCCC4C3=O)cc2)c(Cl)c1 (stereo not given) -37.6%
CN(CC(=O)Nc1cccc(F)c1)S(=O)(=O)c1ccc2c(c1)n(C)c(=O)c(=O)n2C 16.6%
CSc1cccc(NC(=O)c2cc3c(COC(C)=O)cnc(C)c3oc2=O)c1 0.798%
CC(=O)c1cccc(NC(=O)CSc2ncc3c(n2)-c2cc(Cl)ccc2N(Cc2ccccc2)S3(=O)=O)c1 -16%
O=C(CC(c1cccs1)N1Cc2ccccc2C1=O)Nc1ccc(F)cc1 (stereo not given) -10.2%
COc1ccc(S(=O)(=O)NCc2nc(-c3ccccc3)no2)cc1 -13.7%
O=C(CN1C(=O)COc2ccc(S(=O)(=O)N3CCCCCC3)cc21)N1CCN(c2ccc(Cl)cc2)CC1 -28.5%
CCOC(=O)c1ccc(NC(=O)CC(C)n2nc(C)cc2C)cc1 (stereo not given) 4.76%
COc1cc(NC(=O)Cc2noc3ccccc23)cc(OC)c1OC -21.9%
Cc1cccc(-n2ncc3c(NNC(=O)c4ccccc4Cl)ncnc32)c1 -26.3%
COc1ccc(-c2ccc(=O)n(CC(=O)Nc3cc(OC)ccc3OC)n2)cc1 -23.6%
O=c1[nH]c(C2CCCN(S(=O)(=O)c3ccccc3)C2)nc2c1nnn2Cc1ccccc1Br (stereo not given) -24.2%
CCOC(=O)c1cccc(NC(=O)Nc2c(C)n(C)n(-c3ccccc3)c2=O)c1 -16.3%
COc1ccc(CNC(=O)c2cc(-c3ccc(Br)s3)nc3ccccc23)cc1 -8.05%
Cc1cccc(C)c1NC(=O)Cn1cc(C(=O)C2CC2)c2ccccc21 -16.3%
CCCCN(CC)CCCNC(=O)c1cn(C)c(=O)c2c1c1ccccc1n2C -8.12%
CCS(=O)(=O)NCCc1csc2nc(-c3ccc(OC)cc3)nn12 4.05%
CCc1cnc2c(c1SCc1cc(OC)cc(OC)c1)c(=O)n(C)c(=O)n2C -8.73%
